From US6992079B2, “Substituted 11-phenyl-dibenzazepine compounds useful for the treatment or prevention of diseases characterized by abnormal cell proliferation” (President Fellows of Harvard College, priority 1997, dated 2006)
Read-outs that look alike come from different tables or passages of the source.

Test system: NCI-H322M
Details: for GI50 / CC50: Homo sapiens; for CC50: read-out: LC50 (the source's name)
Description: Exemplary compounds 28, 30 and 31 have been screened, using sulforhodamine B (SRB) assay to screen the antiproliferative effects of the compounds against a panel of human cancer cells. The panel comprises 60 human cancer cell lines. The data obtained in his study was evaluated using the COMPARE algorithm.
The measured effect of the compound on a cell line is currently calculated according to one or the other of the following two expressions: If (Mean ODtest−Mean ODtzero)≧0, then PG=100×(Mean ODtest−Mean ODtzero)/(Mean ODctrl−Mean ODtzero) If (Mean ODtest−Mean ODtzero)<0, then PG=100×(Mean ODtest−Mean ODtzero)/Mean ODtzero Where; • Mean ODtzero=The average of optical density measurements SRB-derived color just before exposure of cells to the test compound. • Mean ODtest=The average of optical density measurement of SRB-derived color after 48 hours exposure of cells to the test compound. • Mean ODctrl=The average of optical density measurements of SRB-derived color after 48 hours with no exposure of cells to the test compound. The Data Sheet:
This page of the data package presents the experimental data collected against each cell line. The first two columns describe the subpanel (e.g. leukemia) and cell line (e.g. CCRF-CEM) involved. The next two columns list the Mean ODtzero and Mean ODctrl the next five columns list the Mean ODtest for each of five different concentrations. Each concentration is expressed as the log10 (molar or μg/ml). The next five columns list the calculated PGs for each concentration. The response parameters GI50, TGI, and LC50 are interpolated values representing the concentrations at which the PG is +50.0, and −50, respectively. Sometimes these response parameters cannot be obtained by interpolation. If, for instance, all of the PGs in a given row exceed +50, then none of the three parameters can be obtained by interpolation. In such a case, the value given for each response parameter is the highest concentration tested and is preceded by a “>” sign. This practice is extended similarly to the other possible situations where a response parameter cannot be obtained by interpolation.

O=C(c1ccc([N+](=O)[O-])cc1)N1Cc2ccccc2C(c2ccccc2Cl)c2ccccc21 (stereo not drawn) [Compound 28, N-(4′-Nitrobenzoyl)-11-(2′-chlorophenyl)-5,6-dihydro-11H-dibenz[b,e]azepine]
TGI (48 h): >1.00E−04 Molar | GI50 (48 h): 669 nM | CC50 (48 h): > 100000 nM | Percent Growth (log10 conc −4.0 Molar, 48 h): 34% | Percent Growth (log10 conc −5.0 Molar, 48 h): 37% | Percent Growth (log10 conc −6.0 Molar, 48 h): 44% | Percent Growth (log10 conc −7.0 Molar, 48 h): 78% | Percent Growth (log10 conc −8.0 Molar, 48 h): 91%

COc1ccc2c(c1)CN(C(=O)c1ccc([N+](=O)[O-])cc1)c1ccc(Cl)cc1C2c1ccccc1Cl (stereo not drawn) [Compound 30]
TGI: >1.00E−04 Molar | GI50: 3000 nM | CC50: > 100000 nM | Percent Growth (Log10 concentration −4.0 Molar): 26% | Percent Growth (Log10 concentration −5.0 Molar): 31% | Percent Growth (Log10 concentration −6.0 Molar): 68% | Percent Growth (Log10 concentration −7.0 Molar): 89% | Percent Growth (Log10 concentration −8.0 Molar): 90%

COc1cccc2c1C(c1ccccc1Cl)c1cc(Cl)ccc1N(C(=O)c1ccc([N+](=O)[O-])cc1)C2 (stereo not drawn) [Compound 31]
TGI: >1.00E−04 Molar | GI50: 2340 nM | CC50: > 100000 nM | Percent Growth (log10 conc -4 Molar): 9% | Percent Growth (log10 conc -5 Molar): 15% | Percent Growth (log10 conc -6 Molar): 71% | Percent Growth (log10 conc -7 Molar): 94% | Percent Growth (log10 conc -8 Molar): 98%
